Data reported in the RNAGym collection of RNA variant scans (doi:10.1073/pnas.2313332121).
Variants at the background level are over-represented here.

B1: TPR 5TU (parent)
chain: GGAUCUUCUCGAUCUAACAAAAAAGACAAAUCUGCCACAAAGCUUGAGAGCAUCUUCGGAUGCAGAGGCGGCAGCCUUCGGUGGCGCGAUAGCGCCAACGUUCUCAACUAUGACACGCAAAACGCGUGCUCCGUUGAAUGGAGUUUAUCAUG

Variants of: B1
Experiment: polymerase ribozyme fitness, log enrichment relative to wild type (log ratio); higher = more active; in vitro selection for triplet polymerase activity
Summary of the method: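 Frozen incubation at −7 °C formed the core of a single, triplicate in vitro selection round applied to PCR-built, transcribed mutant libraries of each subunit of a heterodimeric triplet polymerase ribozyme. Extended constructs were gel-excised, captured with streptavidin beads and amplified by RT-PCR, and input and output libraries were Illumina-sequenced with a filter of ≥10 input reads and ≥1 read per output. Fitness is the logarithm of genotype enrichment relative to wild-type enrichment, with inverse-variance-weighted replicate averaging, and the logarithm is base 2.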

Polymerase ribozyme fitness (log ratio), ≤ -4.2:
GGAUCUUCUCGAUCAAACAAAAAAGACAAAUCUGCUACAAAGCUUGAGAGCAUCUUCGGAUGCAGAGGCGGCAGCCUUCGGUGGCGCGAUAGCGCCAACGUACUCAACUAUGACACGCAAAACGCGUGCUCCGUGGAAUGGAGUUUAUCAUG [U15A C36U U102A U135G]
GGAUCUUCUCGAUCAAACAAAAAAGACAAAUCUGCCACAAAGCUUGAGAGCAUCUUCGGAUGCAGAGGCGGCAGCCUUCGGUGGCGGGAUAGCGCCAACGUUCUCAACUAUGACACGCAAAACGCGUGCUCCGUUGAUUGGAGUUUAUCAUG [U15A C87G A138U]
GGAUCUUCUCGAUCAAACAAAAAAGACAAAUCUGCCACAAAGCUUGAGAGCAUCUUCGGAUGCAGAGGCGGCAGCCUCCGGUGGAGCGAUAGCGCCAACGUUCUCAAUUAUGACACGUAAAACGCGUGCUCCGUUGAAUGGAGUUUAUCAUG [U15A U78C C85A C108U C118U]
GGAUCUUCUCGAUCAAACAAAAAAGACAAAUCUGCCAGAAAGCUUGAGAGCAUCUUCGGAUGCAGAGUUGGCAGCCUUCGGUGGCGCGAUAGAGCCAACGUUCUCAACUAUGGCACGCAAAACGCGUGCUCCGUUGAAUGAAGAUUAUCAUG [U15A C38G G68U C69U C93A A113G G141A U144A]
GGAUCUUCUCGAUCCAACAAAAGAGACAAAUCUGCCACAAACCUUGAGAGCAUCUUCGGAUGCAGAGGCGGCAGCCUUCGGUGGCUCGAUAGGGCCAACGUUCUCAACUAUGACACGCAUUACGCGUGCUCCGUUGAAUGGAGUUUAUCAUG [U15C A23G G42C G86U C93G A120U A121U]
GGAUCUUCUCGAUCCAACAAUAAAGACAAAUUUGCCAUAAAGCUUGAGCGCAUCAUCCGAUGCAGAGGCGGCAGCCUUCGGUGGCGCGAUAGCGCCAACGUUCUCAACUAUGACACGCAAAACGCGUGCUCCGUUGAAUGGAGUUUAUCAUG [U15C A21U C32U C38U A49C U55A G58C]
GGAUCUUCUCGAUCCAACAAAAAAGACAAAUCUGCCCCAAAGCUUGAGAGCAUCUUCGGAUGCAGAGGCGGCAGACUUCGGUGGCGCGACAGCGCCAACGUUCUCAACUAUGACACGCAAAACGCGUGCUCCGUUGAAUGGAGUUUAUCAUG [U15C A37C C75A U90C]
GGAUCUUCUCGAUCCAACAAAAAAGACAAAUCUGCCACAAAGCUUGAGAGCUUCUUCGGAUGCAGAGGCGGCAGCCUUCGGUGGCGGGAUAGCGCCAACGUUCUCAACUAUGACACGCAAAACGCGUGCUCAGUUGAAUGGAGUUUAUCAUG [U15C A52U C87G C132A]
GGAUCUUCUCGAUCAAACAAAAAAGACAAAUCUGCCACAAAGCUUGAGAGCCUCUUCGGAUGCAGCGGCGGCAGCCUUCGGUGUCGCGAUAGCGCCAACGUUCUCAACUAUGAAACGCAAAACGCGUGCUCCGUUUAAUGGAGUUUAUCAUG [U15A A52C A66C G84U C114A G136U]
GGAUCUUCUCGAUCAAACAAAAAAGACAAAUCUGCCACAAACCUUGAGAGCAUCAUCGGAUGCAGAGGCGGCAGCCUUCGGUGGCGCGAUAGCGCCAACGUUCUCGACUAUGACACGCAAAACGCGUGCUCCGUUGAAUGGAGUUUAUCAAG [U15A G42C U55A A106G U151A]
GGAUCUUCUCGAUCCAACAAAACAGACAAAUCUGCCACAAAGCUUGAGACCAUCUACGGAUGCAGAGGCGGCAGCCUUCGGUGGCGCGAUAGCACCAACGUUCUCAACUAUGACACGCAAAACGCGUGCUCCGUUGAAGGGAGUUUAUCAUG [U15C A23C G50C U56A G94A U139G]
GGAUCUUCUCGAUCCAACAAAAAAGACAAAUCUGCCACAAAGCUUGAGAGCAUCUUCGGAUGCAGAGGCGGCAGCAGUCGUUGGCGUGAUAGCGCCAAAGUUCUCAACUAUGACACGCAAAACGCGUGCUCCUUUGGAUGGAGUUUAUCAUG [U15C C76A U77G G81U C87U C99A G133U A137G]
GGAUCUUCUCGAUCCAACAAAAAAGUCAGAUCUGCCACAAAGCUUGAGAGCAUCUUCGGAUGCAGAGGCGGCAGCCUUCGGUGGUGCGAUUGCUCCAACGUUCUCAACUAUGUCACGCAAAACGCGUGCUCCGUUGAAUGGAGUUUAUCAUG [U15C A26U A29G C85U A91U G94U A113U]
GGAUCUUCUCGAUCAAACAAAAAAGACAAAUCUGCCACAAAGCUUGAGAGCAUCUGCGGAUGCAGAGGCGGCAGCCUUCGGUGGCGCGAUAUCGCCAACGUUCUCAACUAUGACGGGCAAAACGCAUGCUCCGUUGAAUGGCGUUUAUCGUG [U15A U56G G92U A115G C116G G126A A142C A150G]
GGAUCUUCUCGAUCAAACAAAAAAGACAAAUCUGCCACAAAGCUUGAGACCAUCUUCGGAUGCAGAGGCGGCAGCCUUCGGUGGCGCGAUAGCGCCAACGUUCUCAAGUAUGACACGCAAAACGCGUGCUCCGUUGAAUGGAGUUUAUCAUG [U15A G50C C108G]
GGAUCUUCUCGAUCCAACAAAAUAGACAAGACUGCCACAAAGCUUGAGAGCAUCUUCGGCGGCAGAGGCGGCAGCCUUCGGUGGCGCGAUAGCGCGAACGUUCUCAACUAUGACACGCAAAACGCGUGCUCCGUUGAAUGGAGUUUAUCAUG [U15C A23U A30G U31A A60C U61G C96G]
GGAUCUUCUCGAUCCAACAAAAAAGACAAAUCUGCCAUAAAGCUUGCAACCAUCUACGGAUGCAGAGGCGGCAGCCUUCGGUGGCGCGAUAGCGCAAACGUUCUCAACUAUGACACACAAAACGCGUGCUCCGUUGAAUGGAGUUGAUCAUG [U15C C38U A47C G48A G50C U56A C96A G117A U146G]
GGAUCUUCUCGAUCAAACAAAAAAGACAAAUCUGCCACAAAGCUUGAGAGCAUCUUCGGAUGCAGAGGCGGCAGCUUUCGGUGGAGCGAUACCGCCAACGUUCUCAACAAUGACACGCAAAACGCGUGAUCCGUUCAAUGGAGUUUAUCAUG [U15A C76U C85A G92C U109A C129A G136C]
GGAUCUUCUCGAUCAAACAAAAAAGACAAAUCUGCCACAAAGCUUGAGAGCAUCUUCGGAUGCAGAGGCGGCAGCCUUCGGUGGCGCCAUAGCGCCCACGUUCUCAACUAUGACACGCAAAACGCGUGCUCCGUUGAAUGGAGUUUAUCAUG [U15A G88C A97C]
